# About 340 (0.77%) of roughly 44,000 compounds were called active. This list was built around the results that the source calls inconclusive (neither active nor inactive); the mix of calls is not that of the screen. The call rests on the fitted dose curve; in most records, active means well fitted inhibition curve with a large enough effect; inconclusive means small, poorly fitted or top-dose-only effect; inactive means flat fitted curve, though single readings scatter. No potency is given beside an inconclusive call; the fits are too rough.
# Assay: Acumen qHTS Assay for Inhibitors of the mTORC1 Signaling Pathway in MEF (Tsc2-/-, p53-/-) Cells: Sytravon; further: nearly all actives have a fitted effect of over 50% in size
# Conditions: phospho-rpS6 immunofluorescence/PI, 24 h; series mostly up to 38.3 µM
# Description: NIH Molecular Libraries Probe Production Centers Network [MLPCN] NIH Chemical Genomics Center [NCGC] MLPCN Grant: NS059428-01 Assay Submitter (PI): Blenis, John; Hoffman, Greg; Harvard University NCGC Assay Overview: The mammalian target of rapamycin (mTOR) is an intracellular serine/threonine kinase Aberrant regulation of mTOR signaling plays a causative role in a number of human diseases, including cancer, benign tumors such as lymphangioleiomyomatosis (LAM) and Tuberous Sclerosis Complex (TSC), and metabolic diseases such as diabetes and obesity. This project aims to identify inhibitors of ribosomal protein S6 (rpS6) phosphorylation. The phosphorylation of rpS6 is a key event downstream of mTOR activation. The assay uses a phospho-specific antibody of phospho-rpS6 to detect inhibitors of mTOR activation. Mutations in the Tsc1 and Tsc2 genes are the underlying genetic lesions responsible for TSC, causing constitutive activation of the mTORC1 pathway and leading to profound effects on cell metabolism. Aberrant metabolism in cancer has recently received significant attention as a target to develop therapeutic agents in the treatment of cancer.1 As Tsc2-/- cells have lost the ability to respond to energy and growth factor deprivation, these cells are unable to properly down regulate cellular biosynthetic processes in response to metabolic stress, and are thus extremely sensitive to glucose deprivation-induced death.2 A central goal of this project is to explore the unique cell survival and metabolic properties of cells with Tsc1 or Tsc2 by screening for compounds that selectively target the Tsc2-/- MEFs by screening both Tsc2-/- and WT MEF cell lines. We hope to better understand these aspects of TSC physiology in order to exploit them for therapeutic benefit.
# NCGC Acumen Assay Protocol Summary: For quantitative high throughput analysis of mTORC1 signaling, we developed a cell-based assay for immuno-fluorescence based detection of rpS6 phosphorylation on the Acumen Explorer that will be used a platform for the primary small molecule screen. Mouse embryonic fibroblasts (MEFs) are cultured in 1536-well plates using DMEM + 10% FBS. Twenty-four hrs after plating, test compounds (solubilized in DMSO) are delivered and incubated with the cells for 24 hrs at 37 degree Celsius. Following the incubation, media with compound is aspirated and the cells are fixed in 4% paraformaldehyde (PFA) containing PBS + 0.2% TX-100. Next, PFA is aspirated, cells are washed two times with PBS plus 0.2% TX-100 and the cells are blocked for 1 hr at room temperature (blocking buffer: LiCOR Blocking Buffer plus 0.2% TX-100). […] Cells are washed two times with PBS plus 0.2% TX-100, and stained with 10 uM propidium iodide (PI) for 20-25 minutes for cell number measurement (1:500 dilution of Hoescht staining is also added for IN Cell imaging). The plates are scanned on the Acumen Explorer laser scanning instrument (TTP Labtech) using the 488nm laser for simultaneous excitation of the Alexa-488 and PI. […] The normalized phospho-S6 staining is calculated as the ratio of the integrated Alexa 488 intensity divided by the integrated PI intensity for the single concentration rapamycin control (7.5 nM) and DMSO columns. […] Inhibition of the pathway is defined based on the normalized phospho-S6 intensity in rapamycin treated cells. Active cells are defined as those with a normalized phospho-S6 staining above this threshold, and each treatment is reported as the % positive cells in the well, where thresholds are defined by selecting wells with the highest and lowest signal and differentiating between the % non-active and % active populations. In addition to the pathway specific phospho-S6 endpoint, the number of PI stained cells from the Acumen is recorded as a measure of cell viability. The primary screen was performed with a MEF cell line in a defined genetic background, Tsc2-/-, p53-/- cell line stably transfected with an empty vector control (Tsc2-/- MEF).
# Potency means the concentration at half of the fitted maximal effect; tags describe the fitted curve by direction and shape.
row,SMILES,Potency
1,COc1ccc(CNC(=O)Cn2c(SCC(=O)Nc3ccc(C)c(C)c3)nc3ccccc32)cc1,active: 16.5 µM
2,COc1cccc(-c2cc(C(=O)Nc3cnn(Cc4ccc(Cl)cc4Cl)c3)no2)c1,"inconclusive [falling, partial curve, poor fit]"
3,CCOC(=O)c1ccc(N2C(=O)c3n[nH]c(-c4cccs4)c3C2c2ccc(Cl)cc2Cl)cc1 (stereo not drawn),"inconclusive [falling, single point]"
4,CCC(=O)Nc1ccccc1-c1nc2ccccc2n(C(CC)C(=O)Nc2cccc(Cl)c2)c1=O (stereo not drawn),"inconclusive [falling, partial curve, poor fit]"
5,COc1cccc(NC(=O)c2cccn(Cc3ccccc3C)c2=O)c1,"inconclusive [falling, partial curve, poor fit]"
6,CCCC1=Nc2cc(C(=O)NCCCN(CC)CC)ccc2Sc2ccccc21,"inconclusive [falling, single point]"
7,O=C(Nc1ccc(OC(F)(F)F)cc1)C1CCN(S(=O)(=O)c2cccs2)CC1,"inconclusive [falling, partial curve, poor fit]"
8,COc1ccc2nc(NC(=O)c3nc(S(=O)(=O)Cc4cccc(C)c4)ncc3Cl)sc2c1,active: 6.56 µM
9,COc1c(C)cc(Br)cc1C(=O)Nc1ccc(-c2nc3ncccc3o2)cc1,"inconclusive [falling, partial curve, poor fit]"
10,O=C(Nc1ccccc1)N(Cc1ccc2c(c1)OCO2)C1CCN(Cc2ccccc2)CC1,"inconclusive [falling, partial curve]"
11,Cc1ccc(CNC(=O)c2ccc(Nc3nc4ccccc4n4nnnc34)cc2)cc1,"inconclusive [falling, partial curve, poor fit]"
12,CCOC(=O)C1=C(CN2CCN(c3ccc(C)cc3C)CC2)NC(=O)NC1c1ccc(OC)cc1 (stereo not drawn),"inconclusive [falling, partial curve]"
13,COC(=O)c1ccccc1NC(=O)c1cc(-c2ccccc2O)no1,"inconclusive [falling, single point]"
14,Cc1oc(-c2ccccc2Cl)nc1CN1C(=O)CN=C(c2ccccc2)c2cc(Cl)ccc21,inactive
15,CCOc1ccc(NC(=O)c2cccn(Cc3cccc(Cl)c3)c2=O)cc1,"inconclusive [falling, single point]"
16,COc1ccc(NC(C)=O)cc1NC(=O)c1cccn(Cc2ccccc2)c1=O,inactive
17,CCOc1ccc(C2c3c(-c4ccccc4O)n[nH]c3C(=O)N2Cc2ccncc2)cc1 (stereo not drawn),"inconclusive [falling, partial curve, poor fit]"
18,Cc1ccc(NC(=O)CSc2nc(-c3ccco3)cc(C(F)(F)F)n2)c(C)c1,active: 0.826 µM
19,CCCOC(=O)c1c(C)oc2c1cc(NS(=O)(=O)c1ccc(OCC)cc1)c1ccccc12,"inconclusive [falling, partial curve, poor fit]"
20,CCOc1ccc(-c2cc(C(=O)N3CCN(c4cccc(C(F)(F)F)c4)CC3)c3ccccc3n2)cc1,"inconclusive [falling, full curve, poor fit]"
21,COc1ccc(C(=O)Nc2ccc3c(c2)N(C)C(=O)c2ccccc2S3)cc1OC,"inconclusive [falling, partial curve, poor fit]"
22,CN1CCN(c2oc(-c3ccc(COc4ccccc4)o3)nc2C#N)CC1,inactive
23,c1ccc(N2CCN(c3ncnc4c3nc3n4CCCCC3)CC2)cc1,"inconclusive [falling, partial curve, poor fit]"
24,Cc1ccc(Cn2c(=O)n(CCCCC(=O)NCc3ccccc3Cl)c(=O)c3ccccc32)cc1,"inconclusive [falling, single point]"
25,CC(C)c1ccc(Cc2cn3cc(-c4cc5ccccc5oc4=O)nc3s2)cc1,"inconclusive [falling, full curve, poor fit]"

row,SMILES,Potency
1,O=C(NCCc1ccc(Cl)cc1)C(=O)NCC(c1cccs1)S(=O)(=O)c1cccs1 (stereo not drawn),"inconclusive [falling, partial curve, poor fit]"
2,CCOC(=O)c1ccc(NC(=O)c2sc3nc4c(cc3c2N)N2CCC4CC2)cc1,inactive
3,Nc1c(C(=O)Nc2cccc(Br)c2)sc2nc3c(cc12)N1CCC3CC1,"inconclusive [falling, single point]"
4,Cc1ccccc1Nc1c(-c2ccc(Br)cc2O)nc2sccn12,"inconclusive [falling, single point]"
5,N#Cc1cc2c(nc1SCC(=O)Nc1ccc(C(F)(F)F)cc1)C1CCN2CC1,inactive
6,Cc1ccc(NC(=O)N(Cc2ccc3c(c2)OCO3)C2CCN(Cc3ccccc3)CC2)cc1C,"inconclusive [falling, partial curve, poor fit]"
7,O=C(C1CCN(S(=O)(=O)c2ccc(Br)s2)CC1)N1CCN(c2ccc(F)cc2)CC1,"inconclusive [falling, partial curve, poor fit]"
8,CC(=O)N1c2ccc(S(=O)(=O)NCC3CCC(C(=O)Nc4cc(C)cc(C)c4)CC3)cc2CC1C (stereo not drawn),"inconclusive [falling, partial curve, poor fit]"
9,COc1ccc(NC(=O)c2cccn(Cc3ccc(Cl)cc3)c2=O)c(OC)c1,inactive
10,COc1cccc(C2=CC(c3cc(Br)ccc3F)n3nnnc3N2)c1 (stereo not drawn),"inconclusive [falling, partial curve, poor fit]"
11,CCOC(=O)c1ccc(NC(=O)CSc2nc3c(cc2C#N)N2CCC3CC2)cc1,"inconclusive [falling, partial curve, poor fit]"
12,CCOc1ccc(CN2C(=O)c3ccccc3Sc3ccc(C(=O)N4CCC5(CC4)OCCO5)cc32)cc1,inactive
13,O=C(NCCc1ccc(Cl)cc1)c1ccc(Nc2nc3ccccc3n3nnnc23)cc1,"inconclusive [falling, partial curve, poor fit]"
14,O=C(COc1ccccc1Cl)N1CCN(CCc2ccccn2)CC1,"inconclusive [falling, partial curve, poor fit]"
15,O=C(Nc1ccc(Cl)c(C(F)(F)F)c1)c1ccc2c(c1)CCN2S(=O)(=O)c1ccccc1,active: 8.26 µM
16,Cc1cccc(-n2c(/C=C\c3cccc(Br)c3)nc3ccccc3c2=O)c1,"inconclusive [falling, partial curve, poor fit]"
17,O=C(COC(=O)c1cccc(NC(=O)c2ccc(Br)cc2)c1)c1ccc(Br)cc1,"inconclusive [falling, single point]"
18,Cc1ccc(CNC(=O)CCCn2c(=O)c3sccc3n(CC(=O)Nc3c(C)cccc3C)c2=O)cc1,"inconclusive [falling, single point]"
19,CCc1ccc(CNC(=O)c2ccc3c(c2)N=C(C)c2cc(C)ccc2S3)cc1,"inconclusive [falling, single point]"
20,Cc1ccc(-c2nc3ccc(Cl)cn3c2Nc2ccccc2C)s1,"inconclusive [falling, single point]"
21,O=C(c1ccccc1)c1ccc2nc(N3CCN(c4ccc(F)cc4)CC3)c3nncn3c2c1,active: 4.14 µM
22,CCc1ccc(-n2nc(C)c3c2NC(=O)CSC3c2ccc(OC)cc2OC)cc1 (stereo not drawn),"inconclusive [falling, partial curve, poor fit]"
23,COc1ccc(OCC(=O)N2CCN(CCc3ccccn3)CC2)cc1,"inconclusive [falling, single point]"
24,CCOc1ccc(NC(=O)CSc2oc(-c3ccccc3)nc2S(=O)(=O)c2ccc(Cl)cc2)cc1,"inconclusive [falling, full curve, poor fit]"
25,Cc1cc(-c2ccc(C)c(S(=O)(=O)N3CCOc4ccc(Cl)cc43)c2)on1,"inconclusive [falling, single point]"

row,SMILES,Potency
1,Nc1c(C(=O)Nc2ccc(OC(F)(F)F)cc2)sc2nc3c(cc12)N1CCC3CC1,"inconclusive [falling, single point]"
2,CC(=O)N1CCc2cc(S(=O)(=O)N3CCN(c4ccc(C)cc4)C(C)C3)ccc21 (stereo not drawn),"inconclusive [falling, full curve, poor fit]"
3,CCCCOc1ccc(CN2C(=O)C(=O)c3cc(C)ccc32)cc1OC,"inconclusive [falling, partial curve, poor fit]"
4,Cc1ccc(-n2c(/C=C/c3ccc(Br)s3)nc3ccccc3c2=O)cc1C,"inconclusive [falling, single point]"
5,CCCCNC(=O)c1cc(-c2cccnc2)nc2ccc(S(=O)(=O)NCCCC)cc12,"inconclusive [falling, single point]"
6,COc1ccc(CCNC(=O)c2ccc3c(c2)N=C(C)c2cc(C)ccc2S3)cc1OC,"inconclusive [falling, full curve]"
7,COc1ccc(NC(=O)CCn2cnc3onc(-c4ccc(F)cc4)c3c2=O)cc1OC,"inconclusive [falling, single point]"
8,O=c1oc2ccccc2cc1-c1cn2cc(Cc3ccc(F)cc3)sc2n1,"inconclusive [falling, full curve, poor fit]"
9,Cc1ccc(-c2nc(S(=O)(=O)c3ccc(C)cc3)c(SCC(=O)Nc3ccc(F)cc3)o2)cc1,"inconclusive [falling, partial curve, poor fit]"
10,Cc1oc2ccc(O)c(CN3CCCCCC3)c2c1C(=O)Nc1cccc(Cl)c1C,"inconclusive [falling, partial curve]"
11,CCOc1ccc(NC(=O)c2cc3c(C)nn(-c4ccccc4)c3s2)cc1,active: 18.5 µM
12,O=C(NCCc1ccc(F)cc1)C(=O)NCC(c1cccs1)S(=O)(=O)c1ccc(Cl)cc1 (stereo not drawn),"inconclusive [falling, single point]"
13,COc1ccc(NS(=O)(=O)c2ccc3c(c2)CCCN3C(=O)C2CCC2)cc1OC,"inconclusive [falling, partial curve, poor fit]"
14,Cc1cc(-n2c(/C=C/c3cccs3)nc3ccccc3c2=O)ccc1Br,"inconclusive [falling, partial curve, poor fit]"
15,Cc1oc(-c2ccc(Cl)cc2)nc1CN1CCC(C(=O)NCCCN2CCN(c3cccc(Cl)c3)CC2)CC1,"inconclusive [falling, single point]"
16,Cc1ccccc1C1CC(=O)Nc2ccc3ccccc3c21 (stereo not drawn),"inconclusive [falling, single point]"
17,CCOc1ccc(-c2nc3cc(NC(=O)COc4cccc(C)c4)ccc3o2)cc1,"inconclusive [falling, single point]"
18,Cc1ccc(NC(=O)Nc2cc3c(cc2N2CCCCC2)n(C)c(=O)n3C)cc1Cl,"inconclusive [falling, partial curve, poor fit]"
19,Cc1cccc(CN2CC=C(c3noc(CCC(=O)Nc4ccc(C)c(F)c4)n3)CC2)c1,"inconclusive [falling, single point]"
20,CC(C)c1ccc2oc(-c3ccc(NC(=O)c4cc5ccccc5o4)cc3)nc2c1,"inconclusive [falling, single point]"
21,CCOC(=O)c1cnc2c(ccc3ccccc32)c1Nc1ccc(N(C)C)cc1,"inconclusive [falling, partial curve, poor fit]"
22,CCOc1ccc(/C=C/c2nc(C#N)c(NCc3ccccc3)o2)cc1,"inconclusive [falling, full curve, poor fit]"
23,Nc1c(C(=O)Nc2ccc(Cl)c(C(F)(F)F)c2)sc2nc3c(cc12)N1CCC3CC1,inactive

# From PubChem BioAssay AID493208 (National Center for Advancing Translational Sciences (NCATS), 2011)
